This passage reports inhibition results from PubChem BioAssay AID434955 (Southern Research Specialized Biocontainment Screening …, 2010).

The list shows a part of the results. Shown are side measurements of this screen, not its main read-out; they come without a call. Most of these compounds were active or inconclusive in the main read-out, so they are no random draw.

This test in a line: beta-lactam sensitization of Mtb H37Rv, H37Rv (AID 434955).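 Note: growth measured after seven days incubation then overnight dye step; 0% = bacteria only wells and 100% = bacteria with antibiotic.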 The conditions noted are these: M. tuberculosis H37Rv growth with meropenem, percent inhibition; measured here: primary screen without meropenem; at 25 µM.
The term inhibition denotes the relative decrease from the control value, in per cent. In the case of `CCCN(CCC)C(=O)Cn1c(=O)c2sccc2n2c(=S)sc(-c3ccccc3)c12`, the inhibition was -0.8%. As for `Cn1c(SCC(=O)NCc2cccs2)nnc1-c1ccco1`, the inhibition was 2.61%. To `O=C(Nc1ccc(N2CCCCC2)cc1)c1cc([N+](=O)[O-])cc([N+](=O)[O-])c1` belongs 15.2%. As to `CN(C)CCOC(C1CCCCC1)C1CCCCC1`, the inhibition amounted to 5.75%. Consider `COc1cccc(/C=N/NC(=O)NC23CC4CC(CC(C4)C2)C3)c1O`, for which the inhibition came to 9.73%. In the case of `CC(C)CN(C(=O)COc1ccc(-c2nnco2)cc1)C1CCS(=O)(=O)C1` (stereo not given) it was 0.91%; in that of `Cc1cccc(Nc2nc(N)c(C#N)c(CC#N)c2C#N)c1`, -7.61%; in that of `CCOC(=O)C(=CNc1ccc(C(F)(F)F)cc1Cl)C(=O)OCC`, 7.72%. Consider `O=C(c1nc2ccc(Cl)cn2c1CN1CCCC(CO)C1)N1CCc2ccccc2C1` (stereo not given), for which the inhibition is -1.48%. For `COc1ccccc1-c1nnc(SCC(=O)NC2CCCCC2)o1`, the inhibition is -0.53%. Turning to `Cc1cccc2cc(C(c3nnnn3Cc3ccccc3)N3CCCc4ccccc43)c(=O)[nH]c12` (stereo not given), the inhibition came out at 1.04%.

On to `CCN1CCN(C(=O)C2CCN(Cc3nc(-c4cccc(Cl)c4)oc3C)CC2)CC1`, for which the inhibition was -0.4%. With `Nc1c(C(=O)c2cccs2)sc2nsc(SCCN3CCCCC3)c12`, the inhibition turned out to be 42.9%.

Take `O=C(Cn1cnc2sc3c(c2c1=O)CCCC3)NCC(=O)Nc1ccccc1F`: the inhibition was found to be 6.85%. Take `CC1CN(C(=O)CCC(=O)NCc2ccc(Cl)cc2)c2ccccc2S1` (stereo not given): the inhibition was 0.85%. Turning to `COc1ccc(-n2cnnc2SCC(=O)Nc2cccc(S(=O)(=O)N3CCCCC3)c2)cc1`, the inhibition is -6.25%. Take `C=CCSc1nc2c(c(-c3ccsc3)c1C#N)CN(C)CC2`: the inhibition worked out at 35.1%.

Regarding `COc1cccc(C(=O)N2C(C(=O)O)CSC2c2ccccc2Cl)c1` (stereo not given), the inhibition is 0.15%. To `O=NN1CCN(c2ccncc2S(=O)(=O)N2CCCCC2)CC1` belongs -4.27%; to `Cc1ccc2oc(C(=O)N(C)Cc3cnccn3)c(C)c2c1`, 1.98%; to `O=C(Nc1ccnn1C1CCN(Cc2cccc(OCCO)c2)CC1)c1cccc(F)c1`, 4.21%.

For the compound `CCCNC(=O)NCCc1ccncc1`, the inhibition was -3.88%.

On to `CCCCN(CC)S(=O)(=O)c1ccc(C(=O)Nc2nnc(CSC)o2)cc1`, for which the inhibition is 35.1%. Consider `COc1ccc(C2SCC(=O)Nc3c2c(=O)[nH]n3C2CCCCCC2)cc1OC` (stereo not given), for which the inhibition is 1.23%. In the case of `Cc1cc(C(=O)CSc2nnnn2-c2ccccc2)c(C)n1-c1ccc2c(c1)OCO2`, the inhibition came out at 25.5%.

Regarding `O=C(/C=C/c1ccco1)NC(=S)Nc1ccccn1`, the inhibition was 7.38%.

Regarding `O=c1oc2ccccc2cc1-c1csc(Cc2nc(-c3ccc(Br)cc3)cs2)n1`, the inhibition was 5.58%. For `CCn1cc(CN2CCC(C(=O)Nc3cccc(-c4cscn4)c3)CC2)cn1`, the inhibition was -6.37%. In the case of `O=S(=O)(Cc1ccccc1)N1CCN(C/C=C/c2ccccc2)CC1` it was -0.72%; in that of `O=C(c1nc2ccc(Cl)cn2c1CNCCc1cnccn1)N1CCCCCCC1`, -15.9%; in that of `COc1ccc(CN(C)S(=O)(=O)c2ccc3c(c2)OCCO3)cc1`, -3.04%. As to `CC1(C(=O)O)CCC(C(=O)Nc2ccccc2O)C1(C)C` (stereo not given), the inhibition is -2.85%.

As to `COc1cc(CNc2ccccc2SC)ccc1O`, the inhibition is -8.95%. To `CCN1CCN(Cc2cc(OC)c(OC)cc2[N+](=O)[O-])CC1` belongs 3.3%; to `O=C(Nc1ccccc1F)c1oc2ccccc2c1NC(=O)C1CC1`, 5.06%; to `CCOC(=O)c1ccc(N2CCOCC2)c(NC(=O)c2ccc3c(c2)OCO3)c1`, 3.55%. `CCOC(=O)c1nc(N2CCN(C(=O)OCC)CC2)c2c3c(sc2n1)CCCC3`: the inhibition is 3.3%. Turning to `CCCCc1cc(=O)oc2c(CN(C)C)c(O)c(Cl)cc12`, the inhibition stood at 1.09%. With `N#Cc1cc2c(nc1SCC(=O)Nc1sc3c(c1C#N)CCC3)CCCC2`, the inhibition worked out at 43.5%. To `COc1ccc(C)cc1NC(=O)CSc1nnc(-c2ccc(OC)c(OC)c2)n1N` belongs -2.82%.

As to `O=S(=O)(Nc1cccc(-c2ccc(N3CCCCCC3)nn2)c1)c1ccccc1Cl`, the inhibition turned out to be 30.8%. To `CC1(C)Cc2c(sc(NC(=O)c3ccc(S(=O)(=O)N4CCCCCC4)cc3)c2C#N)C(C)(C)N1` belongs 9.45%; to `CCn1cc(CN2CCC(C(=O)Nc3cccc(-c4cccc(Cl)c4)c3)CC2)cn1`, 13.6%; to `Cc1ccc(CNc2ncnc3c2cnn3-c2ccccc2)cc1`, -4.07%. Turning to `O=C(NCc1cccs1)c1cc(-c2cccs2)on1`, the inhibition was -1.22%. Take `CN(C)c1ccc(-c2nn3c(-c4cccnc4)nnc3s2)cc1`: the inhibition was -3.24%. As for `CCc1ccc2nc(N(CCN(C)C)C(=O)/C=C/c3cccs3)sc2c1`, the inhibition turned out to be 54.8%. Turning to `Cc1cnc(CN(C)Cc2c(C(=O)N3CCCCCCC3)nc3ccc(Cl)cn23)[nH]1`, the inhibition was 2.21%. Turning to `Cc1cc2[nH]c(=O)c(=O)[nH]c2cc1S(=O)(=O)N(C)C1CCCCC1`, the inhibition is -9.31%. As for `COc1ccccc1C(c1c(N)n(C)c(=O)n(C)c1=O)C(C)[N+](=O)[O-]` (stereo not given), the inhibition amounted to 43.9%. For `COCCN1C(=O)c2ccccc2C(C(=O)N2CCN(c3ccccc3)CC2)C1c1ccc(F)cc1` (stereo not given), the inhibition was -2.38%. Take `COC(C(=O)Nc1ccnn1C1CCN(Cc2ccc(CO)o2)CC1)c1ccccc1` (stereo not given): the inhibition is -16.5%. Consider `CCn1c(O)c(/C(C)=N/N2CCCCC2c2cccnc2)c(=O)[nH]c1=S` (stereo not given), for which the inhibition came out at 5.62%. `O=C(CN1C(=O)c2cccnc2Oc2ccc(Cl)cc21)N1CCOCC1`: the inhibition was 9.43%. In the case of `C/C(=N\O)c1noc(C)c1C(=O)Nc1nccs1` it was -2.68%; in that of `COC(=O)N1CC(c2ccccc2)CC1=O` (stereo not given), 2.76%. To `COc1ccc(CNC(=O)C2CCN(C(=O)c3cccc(Cl)c3)CC2)cc1` belongs -4.8%; to `COc1ccc(OC)c(NC(=O)c2ccccc2SC)c1`, 29.6%; to `CN(C(=O)c1sc2nc(N3CCCC3)c3c(c2c1N)CC(C)(C)OC3)c1ccccc1`, 4.75%. In the case of `CC(=O)N1Cc2ccccc2C(C)CC12CCCCC2` (stereo not given), the inhibition stood at 0.06%. In the case of `Cc1ccc(Nc2nc(-c3ccc(S(=O)(=O)N4CCOCC4)cc3)cs2)cc1` it was 4.08%; in that of `C/C(=N\Nc1ccc([N+](=O)[O-])cc1[N+](=O)[O-])C(C)(C)C(C(=O)O)C(=O)O`, 4.21%. For `COc1ccc(C2C3=C(N=C4SCC(=O)N42)c2ccccc2CC3)cc1OC` (stereo not given), the inhibition is -1.14%. Regarding `CN(CC(=O)Nc1ccc(OC(F)(F)F)cc1)C(=O)/C=C/c1cc2c(cc1[N+](=O)[O-])OCO2`, the inhibition turned out to be 91.5%.

Take `CCCCc1nc(SCC(=O)Nc2cccc(Cl)c2)n[nH]1`: the inhibition is -1.35%. `Cc1ccc(S(=O)(=O)Nc2cc3c(cc2N2CCOCC2)n(C)c(=O)c(=O)n3C)cc1`: the inhibition was -12.4%. In the case of `CC(=O)Nc1ccc(S(=O)(=O)N2CCN(C(=O)C3COc4ccccc4O3)CC2)cc1` (stereo not given), the inhibition was 3.96%.

Take `CCCOc1ccccc1NC(=O)/C=C/C(N)=O`: the inhibition turned out to be 5.62%.

On to `COC(=O)Sc1nnc(-c2ccc(Br)cc2)o1`, for which the inhibition worked out at 2.85%.

For `O=C(c1cc(COc2ccc(F)cc2Cl)on1)N1CCN(c2cnccn2)CC1`, the inhibition was found to be 53.3%. Regarding `Cc1c(-c2ccc(OCc3ccccc3)cc2)nc2ccccc2c1C(=O)O`, the inhibition was 7.79%.

Turning to `Cc1ccc(/C=C/C(=O)Nc2cccc(S(=O)(=O)N3CCOCC3)c2)o1`, the inhibition turned out to be 0.85%.

On to `Cc1occc1C(=O)NCc1ccccn1`, for which the inhibition was found to be 1.51%. Consider `CCC(=O)NC(c1ccc([N+](=O)[O-])cc1)c1c(O)ccc2ccccc12` (stereo not given), for which the inhibition is 0.2%. `Cc1ccc2c(Cl)cc(Cl)c(OCc3c(C)noc3C)c2n1`: the inhibition worked out at 17.6%. On to `CCOC(=O)C1CCN(C(=O)c2cc(COc3ccc(F)cc3F)on2)CC1`, for which the inhibition was 73.6%. As for `Cc1ccccc1Cn1cc(NC(=O)CSc2nc3c(c(C(F)(F)F)n2)CCc2ccccc2-3)cn1`, the inhibition was found to be 9.01%. In the case of `COc1ccc(N(C(=O)c2cccnc2)S(=O)(=O)c2ccc(OC)c(OC)c2)cc1` it was -6.99%. With `Cn1ncc(Cl)c1C(=O)N1CCC2(CC1)OCCO2`, the inhibition was 2.29%. In the case of `CCCCOc1cccc(NC(=O)CSc2nncn2C)c1`, the inhibition stood at 10.4%.

For the compound `COc1ccc(N2CC(C(=O)Nc3nnc(SCC(=O)NC4CCCC4)s3)CC2=O)cc1` (stereo not given), the inhibition amounted to 2.27%. To `CC(OC(=O)c1ccc(NC(=O)CC#N)cc1)C(=O)NC(=O)NC1CCCCC1` (stereo not given) belongs 2.28%. Consider `CCCC(=O)c1c(NC)cc(C)oc1=O`, for which the inhibition worked out at 4.37%.

`O=C(CSc1nnc2scc(-c3ccccc3)n12)c1ccc2c(c1)OCCO2`: the inhibition is -5.16%. `Cc1ccc(C(=O)NC2CCCCC2)cc1S(=O)(=O)N1CCCC1`: the inhibition worked out at 18.5%. Turning to `COc1ccc(C(=O)N2CCNC(=O)C2CC(=O)Nc2cccc(Cl)c2Cl)cc1` (stereo not given), the inhibition was determined as 7.81%. For `CN(C)c1ccc(S(=O)(=O)c2ccc(Cl)cc2)cc1`, the inhibition came out at 5.97%. Turning to `CN(C(=O)Nc1ccc(Cl)cc1)n1cnc2ccccc2c1=O`, the inhibition is 38.9%.

For `C/C(=N/NC(=O)c1cccs1)c1c(C)[nH]n(-c2nc3ccccc3s2)c1=O`, the inhibition stood at 50.4%. In the case of `COc1cc(NC(=O)COC(=O)CCOc2ccc(C)cc2)cc(OC)c1` it was 6.63%. With `Cn1c(=O)[nH]c(=O)c2c1nc(CN1CCN(c3cccc(Cl)c3)CC1)n2CCc1ccccc1`, the inhibition was -0.59%. As to `C=CCc1ccccc1OCC(O)CN1CCN(c2ccc(OC)cc2)CC1` (stereo not given), the inhibition was 17.9%.

On to `CSc1nnc(C)c(/C=C/Nc2ccc(Cl)cc2)n1`, for which the inhibition is -3.63%. For `COc1ccc(NS(=O)(=O)c2ccc(O)c(NC(=O)c3cc4c(C)nn(-c5ccc(F)cc5)c4s3)c2)cc1`, the inhibition stood at 83.6%. With `Cc1cc(S(=O)(=O)Nc2c(C)ccc3nsnc23)ccc1F`, the inhibition was -2.36%. Take `CCOc1ccc(NC(=O)CC2C(=O)N(c3ccc(OC)c(Cl)c3)C(=S)N2C2CC2)cc1` (stereo not given): the inhibition was -1.84%. In the case of `COc1cccc(CNS(=O)(=O)c2c(C)[nH]c(C)c2C(=O)N2CCCC2)c1` it was -5.66%; in that of `Cc1ccc(S(=O)(=O)N(CC(=O)Nc2ccc(Cl)c([N+](=O)[O-])c2)C2CCCCC2)cc1`, 23%; in that of `Cc1cc(C)cc(N2C(=O)c3nccnc3C2=O)c1`, -7.33%. For the compound `CCCCOc1ccc(C(=O)Nc2ccc(S(=O)(=O)Nc3onc(C)c3C)cc2)cc1`, the inhibition stood at 5.63%. On to `Cc1ccccc1NC(=S)N(CCCN1CCCCC1)Cc1ccco1`, for which the inhibition is -2.96%. Take `COc1ccc(-c2csc3ncnc(N4CCN(c5ccc(OC)cc5)CC4)c23)cc1`: the inhibition was 40.4%. To `CC(C)c1ccc(NC(=O)Cn2ncn3c(cc4ccccc43)c2=O)cc1` belongs 6.55%; to `CCOC(=O)c1c(C)[nH]c(C(=O)OC(C)C(=O)Nc2ccccc2OC)c1C` (stereo not given), 2.47%; to `CCOc1ccc(C2=C(C=C(C#N)C#N)C(c3ccccc3)c3ccccc3O2)cc1` (stereo not given), 11.9%.
